In the supplement of paper PMC4604168 (melanoma cell lines) one finds cell count data, which are given here for 3 compounds.

The structures appear in SMILES notation. Some of the results follow. Most values come without repeats; read them as rough.
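Also: cells treated in 1,536-well plates, then fixed and DAPI-stained, with nuclei counted from automated high-throughput microscope images.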

This assay concerns A375. The assay is described as follows: cell count relative to DMSO control; melanoma cells; higher = more viable cells. The conditions noted are these: library dose: standard library concentration; 72 h.
In the case of `O=C(Nc1cc(C(F)(F)F)cc(C(F)(F)F)c1)c1cc(Cl)ccc1O` + CO[C@@H]1[C@H](N(C)C(=O)c2ccccc2)C[C@H]2O[C@]1(C)n1c3ccccc3c3c4c(c5c6ccccc6n2c5c31)C(=O)NC4 [Midostaurin] (first compound 0.08 µM, partner dose 0.4 µM), the cell count was determined as 74%.
The figure for `O=C(Nc1ccccc1)c1cc([N+](=O)[O-])ccc1Cl` + Cc1cc([N+](=O)[O-])ccc1NS(=O)(=O)c1cc(Cl)ccc1Cl [FH535] (first compound 10 µM, partner dose 5 µM) is 107%; for `O=C(O)[C@@H]1[O][Sb](=[O])([O][Sb]2(=[O])[O][C@H]([C@H](O)CO)[C@H](O)[C@H](C(=O)O)[O]2)[O][C@H]([C@H](O)CO)[C@@H]1O` (stereo partly drawn) [stibogluconate] + Nc1nc(F)nc2c1ncn2[C@@H]1O[C@H](CO)[C@@H](O)[C@@H]1O [fludarabine] (first compound 10 µM, partner dose 1 µM) it is 32.9%.
